According to PubChem BioAssay AID1508624 (National Center for Advancing Translational Sciences (NCATS), 2021):
The campaign covered roughly 48,000 compounds. About 120 (0.25%) were called active. Roughly 4% stayed inconclusive and do not appear here. Calls come from the whole dose curve; as a rule, active = well fitted activation curve with a large enough effect; inconclusive = small, poorly fitted or top-dose-only effect, or another doubt; inactive = no such curve, though single readings can be large or run the other way. Some of the results follow.

Assay: Primary qHTS for Identification of Small Molecule Activators of Huntingtin-Antisense Promoter Activity; note: nearly all actives have a fitted effect of over 55% in size
Settings: HEK293 HTT-AS promoter firefly luciferase reporter (activity 0% = vehicle and -100% = no light), 24 h; series mostly up to 57.5 µM; activity change, positive = activation: at the top concentration
How it was run: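 Firefly luciferase signal from promoter-reporter HEK293 cells was scaled between vehicle (0%) and zero RLU (-100%). Compounds were tested at final concentrations of up to 57.5 uM over 24 h at 37 degrees C. PTC124 at 50 uM final served as control inhibitor.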

Activity change, positive = activation, inactive:
COc1ccc(NC(=O)c2nnn(CC(=O)Nc3cc(C)cc(C)c3)c2N)c(OC)c1 -8.09%
CCN(C(=O)c1cc(S(=O)(=O)N2CCCC2)cn1C)c1ccc(OC)cc1 -1.19%
COc1ccc(Cn2c(SCc3ccc(C(=O)NCc4cccs4)cc3)nc3ccncc32)cc1 -30%
CSCC[C@H](NC(=O)[C@H](Cc1c[nH]c2ccccc12)NC(=O)CCNC(=O)OC(C)(C)C)C(=O)N[C@@H](CC(=O)O)C(=O)N[C@@H](Cc1ccccc1)C(N)=O -1.66%
O=S(=O)(c1ccccc1)c1nc(-c2ccco2)oc1SCc1ccc(F)cc1 -5.49%
CCCCC(=O)Nc1ccc(C(=O)OCc2cc(=O)n3ccsc3n2)cc1 -34%
Cc1ccc(NC(=O)Cn2c(=O)cc(-c3ccccc3)c3c(C)nn(C)c32)c(Cl)c1 -7.48%
CCOC(=O)c1sc2cccc(F)c2c1S(=O)(=O)Nc1ccccc1F -8.89%
Cc1ccc(C)c(NC(=O)Cn2c(=O)n(CC(=O)NCCc3ccccc3)c(=O)c3ccccc32)c1 -2.84%
O=C(CCCn1c(=O)[nH]c2ccsc2c1=O)N1CCN(c2ccc(Cl)cc2)CC1 -33.3%
O=C(CSc1nnc(-c2ccc(Cl)cc2)c(-c2ccc(Cl)cc2)n1)NC1CCCC1 2.91%
CC(=O)c1cccc(Nc2nc(-c3ccccc3Cl)nc3ccccc23)c1 -44.1%
Cc1ccccc1Cn1c2ccccc2c2cnn(CC(=O)NCCc3ccc(Cl)cc3)c(=O)c21 4.57%
O=C(NC1CC(=O)N(c2ccccc2)C1)c1ccc(S(=O)(=O)N2CCCC2)cc1 (centres undefined) -22.7%
Nc1ncc(S(=O)(=O)NCc2ccc(F)cc2)cn1 -8.26%
CC(CCCc1ccccc1)NC(=O)c1nn(-c2ccc(Cl)cc2)nc1CO (centres undefined) -34.7%
CC(C)c1cccc(C(C)C)c1NS(=O)(=O)c1cccs1 -31.2%
Cc1ccc2[nH]c3c(=O)n(CC(=O)N4CCCC(C)C4)ncc3c2c1 (centres undefined) -9.46%
CCOC(=O)c1c(C)[nH]c(C)c1S(=O)(=O)NCC(=O)N1CCN(c2ccccc2F)CC1 -0.711%
COc1ccc(CNC(=O)C2CCN(S(=O)(=O)c3ccc4c(ccn4C)c3)CC2)cc1 -19.7%
Cc1cc(C)c2c(-n3cccc3)c(C(=O)NCC(C)c3ccccc3)sc2n1 (centres undefined) -19.6%
COc1ccc(C(=O)CCC(=O)Nc2cc(C)ccc2C)cc1 -20.8%
CCOc1ccccc1NC(=O)c1cc2c(=O)[nH]c3ccccc3c2s1 -3.02%
Cc1cccc2sc(N(Cc3cccnc3)C(=O)COc3ccccc3)nc12 -23.1%
O=C(NC1CCCCC1)c1ccc2c(c1)N(Cc1cccc(Cl)c1)C(=O)c1ccccc1S2=O (centres undefined) -12.9%
CCc1ccc(NC(=O)c2sc3nc(C)cc(C)c3c2NC(=O)c2ccccc2OC)cc1 27.3%
CCN(Cc1ccccc1)C(=O)CCS(=O)(=O)c1ccc2c(c1)CCN2C(C)=O -22.6%
COc1ccc(CN2CCN(S(=O)(=O)c3ccc(NC(C)=O)cc3)CC2)c(OC)c1OC -16.4%
CC(=O)c1cc2c(cc1N/C(=N/S(=O)(=O)c1ccc(F)cc1)c1ccccc1)OCO2 -9.9%
O=C(Cn1ncc2c3ccccc3n(Cc3cccc(Cl)c3)c2c1=O)N1CCCCCC1 -30.2%
O=C(NCc1ccco1)c1ccc2c(c1)N(Cc1cccc(Cl)c1)C(=O)c1ccccc1S2=O (centres undefined) -37.9%
CCOc1ccc(CCNC(=O)Cn2c(C)c3cnn(-c4ccccc4)c(=O)c3c2C)cc1 -11.2%
COc1cc(OC)c(NC(=O)CSc2cc(=O)n(C)c3ccc(Cl)cc23)cc1Cl -0.0423%
CCc1c(CN2CCN(c3cccc(C)c3)C(C)C2)csc1C (centres undefined) -12.9%
CN(C)CCNC(=O)Cn1nc(N2CCN(c3ccccc3)CC2)ccc1=O -15.4%
CCOc1ccc(CC(=O)NCc2ccc3c(c2)CCN3C(C)=O)cc1OCC -13.5%
CC(C)(C)OC(=O)N1CCC(c2c(C(=O)N3CCN(c4ncccn4)CC3)cnn2-c2cccc(F)c2)CC1 13.5%
COc1ccc(NC(=O)CCc2nnc3n(CC(C)C)c(=O)c4ccccc4n23)cc1OC -1.01%
Cc1ccc(C)c(S(=O)(=O)c2nnn3c2nc(N2CCCCC2)c2sccc23)c1 -36.2%
Cc1ccc(O)c(NC(=O)COCc2cc(-c3ccco3)on2)c1 1.44%
COc1ccc(OC)c(NC(=O)Cn2cc(C(=O)c3ccc(Cl)cc3)c(=O)c3cc(OC)ccc32)c1 -27.1%
CC(=O)Nc1nonc1-c1nnc(SCc2ccccc2Cl)n1C -4.99%
COc1cc2c(cc1OC)n(CC(=O)c1ccc(C)cc1)c(=O)n1nc(CCn3nc(C)cc3C)nc21 -1.24%
COc1ccc(NC(=O)c2ccc3c(c2)CCN3S(=O)(=O)c2ccccc2)cc1 -17.1%
COc1ccc(-c2cc(C(=O)Oc3cccc(C)c3C)c3ccccc3n2)cc1 -6.18%
Cc1noc2ncnc(N3CCCC(C(=O)Nc4cccc(C(F)(F)F)c4)C3)c12 (centres undefined) -38.6%
CCc1ccc(NC(=O)c2ccc(F)c(S(=O)(=O)N3CCN(c4cc(C)ccc4C)CC3)c2)cc1 -28.1%
O=C1c2cccc(O)c2C(=O)c2c(O)cccc21 0.0892%
Cc1cc(C)c2c(=O)c3c(oc2c1)C(=O)N(Cc1ccco1)C3c1ccccc1F (centres undefined) -2.94%
Cn1cc(-c2cc3n(n2)CCC(=O)N3CCCC(=O)Nc2ccccc2F)c2ccccc21 -8.68%
COc1ccc(-c2nc(S(=O)(=O)c3ccc(C)cc3)c(NCc3ccccc3)o2)cc1 0.363%
CCc1c(C)c(C#N)c2nc3ccccc3n2c1Nc1cccc(C(F)(F)F)c1 -25.8%
CCc1cccc(NC(=O)C(CC)n2nc(C)c3sc4ccccc4c3c2=O)c1 (centres undefined) -10.8%
COc1ccc(NC(=O)c2sc3nc4c(cc3c2N)CN(Cc2ccccc2)CC4)cc1OC -8.42%
Cc1noc(-c2ccc(-c3noc(-c4ccc(C(F)(F)F)cc4)n3)cc2)n1 -2.62%
CC(C)c1ccc(NC(=O)C(Cc2ccccc2)NS(=O)(=O)c2ccc3c(c2)oc(=O)n3C)cc1 (centres undefined) -11.6%
COc1ccc(Nc2nc(-c3ccccc3F)nc3ccccc23)cc1OC -14.5%
O=C(NCCCN1CCN(c2ccc(F)cc2)CC1)c1ccc2nc(CCc3ccccc3)oc2c1 -19.9%
Cc1ccc(N2CC(C(=O)NCc3nnnn3-c3ccc(C)c(C)c3)CC2=O)cc1 (centres undefined) -6.94%
COC(=O)c1ccc(Cn2c(SCC(=O)Nc3ccc(F)cc3)nc3ccccc32)cc1 -21%
O=c1cc(N2CCOCC2)oc2c(-c3ccccc3)cccc12 -5.87%
CCCCN(CC)Cc1ccc(CNS(=O)(=O)c2cc3c(cc2Cl)NC(=O)CO3)o1 -15.6%
CCOc1ccc(NC(=O)Cn2c(=O)n(Cc3ccc(C(=O)NCc4ccc5c(c4)OCO5)cc3)c(=O)c3ccccc32)cc1 -6.07%
CCCCOc1ccc(C(=O)Nc2ccc3c(c2)CCCN3S(=O)(=O)c2ccc(C)cc2)cc1 -17.2%
O=C(NCc1ccccn1)c1nn(-c2ccccc2F)nc1CO -39.2%
COc1cc(CN2CCN(S(=O)(=O)c3ccc(F)cc3)CC2)cc(OC)c1OC -23.5%
Fc1ccccc1C1=NC(c2ccc(C(F)(F)F)cc2)=Nc2ccccc2N1 -20.6%
CCOc1ccccc1CN1CCc2nc(Nc3ccccc3)ncc2C1 -12.4%
COC(=O)c1cc(OC)c(OC)cc1NC(=O)c1ccc2c(c1)CCN2S(=O)(=O)c1ccccc1 9.23%
Fc1ccc(-n2ncc3c(N4CCN(Cc5ccccc5)CC4)ncnc32)cc1 26.8%
COc1ccc(OC)c(CCNC(=O)CN2C(=O)COc3ccc(S(=O)(=O)N4CCCCCC4)cc32)c1 -22.2%
COc1cccc(CNC(=O)CSc2n[nH]c(-c3ccccc3Cl)n2)c1 -5.66%
Cc1ccc(C)c(Cn2cnc3ccccc3c2=O)c1 -21.6%
COc1cccc(CNC(=O)CCNS(=O)(=O)c2ccc3c(c2)CCCC(=O)N3)c1 -10.1%
CC1=C(C(=O)Nc2ccccc2)C(c2cccs2)n2nc(SCc3ccccc3)nc2N1 (centres undefined) -4.91%
O=C(Nc1c2c(nn1-c1ccc(Cl)cc1)CS(=O)(=O)C2)c1cccc(Cl)c1 -43.5%
O=C(CSc1ccc2nnc(CCNS(=O)(=O)c3ccccc3)n2n1)Nc1ccccc1C(F)(F)F -22.4%
CCc1cccc(NC(=O)CN2c3ccccc3S(=O)(=O)c3ccccc32)c1 -13.6%
CC(=O)N1c2ccc(S(=O)(=O)NCCC(=O)Nc3ccc(C)cc3Br)cc2CC1C (centres undefined) -21.8%
Cc1ccc(CNC(=O)Cn2ccn(-c3cc(C)cc(C)c3)c(=O)c2=O)cc1 -5.56%
COc1ccccc1NC(=O)Cn1nc(C)n2cccc2c1=O -3.02%
COc1ccc(OC)c(NC(=O)c2cc3cc4ccc(C)cc4nc3s2)c1 13.1%
Cn1ccc2cc(S(=O)(=O)N3CCN(C(=O)Nc4ccccc4F)CC3)ccc21 1.35%
Nc1nc(N)c(S(=O)(=O)c2ccccc2)c(Nc2ccc(F)cc2)n1 -28.9%
CCOC(=O)c1c(Nc2cccc(C)c2)nnc(-c2ccccc2)c1-c1ccccc1 -46.9%
CCOC(N)=O 1.67%
O=C(CSc1nc2ccccc2nc1Cc1ccccc1)N1CCCc2ccccc21 -23.6%
COc1cc(-c2ccno2)ccc1S(=O)(=O)N1CCN(c2ccc(F)cc2)CC1 -36%
CCc1ccc2occ(CC(=O)N(Cc3ccc(N(C)C)cc3)C3CCS(=O)(=O)C3)c2c1 (centres undefined) -17.9%
CCOC(=O)N1CCC(NC(=O)c2ccc3c(c2)N(Cc2ccc(Cl)cc2)C(=O)c2ccccc2S3=O)CC1 (centres undefined) -39.8%
Cc1cccc(N(C)S(=O)(=O)c2nnc(NC(=O)C3CCCCC3)s2)c1 -19%
CCOc1ccc(NC(=O)Cn2c(=O)cc(C)c3c(C)nn(-c4ccc(CC)cc4)c32)cc1 11.6%
COc1ccc(C(=O)Nc2ccccc2C(=O)OCc2cc(=O)n3nc(C4CC4)sc3n2)cc1 15%
CCOC(=O)N1CCc2c(sc3c2c(=O)n(-c2ccc(CC)cc2)c(=O)n3Cc2cc(C)ccc2C)C1 -5.89%
